Reference: the supplement of paper PMC8728848
This is one part of the list.

How the values were obtained:
Assay in all cases: glycan array binding signal (z-score within array); higher = stronger binding
Settings in all cases: glycan notation: IUPAC condensed, linker removed
[1] = biological target: GlcNAc(b1-3)Gal(b1-4)GlcNAc(b1-3)Gal(b1-4)GlcNAc(b1-2)Man(a1-3)[GlcNAc(b1-3)Gal(b1-4)GlcNAc(b1-3)Gal(b1-4)GlcNAc(b1-2)Man(a1-6)]Man(b1-4)GlcNAc(b1-4)[Fuc(a1-6)]GlcNAc
How it was run: (§1)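 Arrays were curated from the Consortium for Functional Glycomics database, 3228 in total, and kept only where the protein sequence was available. Binding is expressed as a within-array Z-score. This score was averaged across arrays of the same protein sequence at different concentrations or buffers and across linkers, and negative values can be read as non-binding.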

[2] = biological target: GlcNAc(b1-3)Gal(b1-4)GlcNAc(b1-3)Gal(b1-4)GlcNAc(b1-2)[GlcNAc(b1-3)Gal(b1-4)GlcNAc(b1-3)Gal(b1-4)GlcNAc(b1-6)]Man(a1-6)[GlcNAc(b1-3)Gal(b1-4)GlcNAc(b1-3)Gal(b1-4)GlcNAc(b1-2)Man(a1-3)]Man(b1-4)GlcNAc(b1-4)[Fuc(a1-6)]GlcNAc
How it was run: as §1

[3] = biological target: GlcNAc(b1-3)Gal(b1-4)GlcNAc(b1-3)Gal(b1-4)GlcNAc(b1-3)Gal(b1-4)GlcNAc(b1-2)Man(a1-3)[GlcNAc(b1-3)Gal(b1-4)GlcNAc(b1-3)Gal(b1-4)GlcNAc(b1-3)Gal(b1-4)GlcNAc(b1-2)Man(a1-6)]Man(b1-4)GlcNAc(b1-4)GlcNAc
How it was run: as §1

[4] = biological target: GlcNAc(b1-3)Gal(b1-4)GlcNAc(b1-3)Gal(b1-4)GlcNAc(b1-3)Gal(b1-4)GlcNAc(b1-2)Man(a1-3)[GlcNAc(b1-3)Gal(b1-4)GlcNAc(b1-3)Gal(b1-4)GlcNAc(b1-3)Gal(b1-4)GlcNAc(b1-2)Man(a1-6)]Man(b1-4)GlcNAc(b1-4)[Fuc(a1-6)]GlcNAc
How it was run: as §1

[5] = biological target: GlcNAc(b1-3)Gal(b1-4)GlcNAc(b1-3)Gal(b1-4)GlcNAc(b1-3)Gal(b1-4)GlcNAc(b1-2)[GlcNAc(b1-3)Gal(b1-4)GlcNAc(b1-3)Gal(b1-4)GlcNAc(b1-3)Gal(b1-4)GlcNAc(b1-6)]Man(a1-6)[GlcNAc(b1-3)Gal(b1-4)GlcNAc(b1-3)Gal(b1-4)GlcNAc(b1-3)Gal(b1-4)GlcNAc(b1-2)Man(a1-3)]Man(b1-4)GlcNAc(b1-4)[Fuc(a1-6)]GlcNAc
How it was run: as §1

[6] = biological target: GlcNAc(b1-3)Gal(b1-4)GlcNAc(b1-3)Gal(b1-4)GlcNAc(b1-3)Gal(b1-4)GlcNAc(b1-3)Gal(b1-4)GlcNAc(b1-2)Man(a1-3)[GlcNAc(b1-3)Gal(b1-4)GlcNAc(b1-3)Gal(b1-4)GlcNAc(b1-3)Gal(b1-4)GlcNAc(b1-3)Gal(b1-4)GlcNAc(b1-2)Man(a1-6)]Man(b1-4)GlcNAc(b1-4)GlcNAc
How it was run: as §1

[7] = biological target: GlcNAc(b1-3)Gal(b1-4)GlcNAc(b1-3)Gal(b1-4)GlcNAc(b1-3)Gal(b1-4)GlcNAc(b1-3)Gal(b1-4)GlcNAc(b1-2)Man(a1-3)[GlcNAc(b1-3)Gal(b1-4)GlcNAc(b1-3)Gal(b1-4)GlcNAc(b1-3)Gal(b1-4)GlcNAc(b1-3)Gal(b1-4)GlcNAc(b1-2)Man(a1-6)]Man(b1-4)GlcNAc(b1-4)[Fuc(a1-6)]GlcNAc
How it was run: as §1

[8] = biological target: GlcNAc(b1-3)Gal(b1-4)GlcNAc(b1-3)Gal(b1-4)GlcNAc(b1-3)Gal(b1-4)GlcNAc(b1-3)Gal(b1-4)GlcNAc(b1-2)[GlcNAc(b1-3)Gal(b1-4)GlcNAc(b1-3)Gal(b1-4)GlcNAc(b1-3)Gal(b1-4)GlcNAc(b1-3)Gal(b1-4)GlcNAc(b1-6)]Man(a1-6)[GlcNAc(b1-3)Gal(b1-4)GlcNAc(b1-3)Gal(b1-4)GlcNAc(b1-3)Gal(b1-4)GlcNAc(b1-3)Gal(b1-4)GlcNAc(b1-2)Man(a1-3)]Man(b1-4)GlcNAc(b1-4)[Fuc(a1-6)]GlcNAc
How it was run: as §1

[9] = biological target: GlcNAc(b1-3)Gal(b1-4)GlcNAc(b1-3)Gal(b1-4)GlcNAc(b1-3)GalNAc
How it was run: as §1

[10] = biological target: GlcNAc(b1-3)Gal(b1-4)GlcNAc(b1-3)GalNAc
How it was run: as §1

[11] = biological target: GlcNAc(b1-3)Gal(b1-4)GlcNAc(b1-3)[GlcNAc(b1-3)Gal(b1-4)GlcNAc(b1-3)]GalNAc
How it was run: as §1

[12] = biological target: GlcNAc(b1-3)Gal(b1-4)GlcNAc(b1-6)[Gal(b1-3)]GalNAc
How it was run: as §1

[13] = biological target: GlcNAc(b1-3)Gal(b1-4)GlcNAc(b1-6)[GlcNAc(b1-3)Gal(b1-3)]GalNAc
How it was run: as §1

[14] = biological target: GlcNAc(b1-3)Gal(b1-4)GlcNAc(b1-6)[GlcNAc(b1-3)]Gal(b1-4)GlcNAc
How it was run: as §1

GlcNAc(b1-3)GalNAc = biological target: GlcNAc(b1-3)GalNAc
How it was run: as §1

GlcNAc(b1-3)Man = biological target: GlcNAc(b1-3)Man
How it was run: as §1

[15] = biological target: GlcNAc(b1-3)[GlcNAc(b1-4)][GlcNAc(b1-6)]GlcNAc
How it was run: as §1

[16] = biological target: GlcNAc(b1-3)[GlcNAc(b1-6)]Gal(b1-4)GlcNAc
How it was run: as §1

[17] = biological target: GlcNAc(b1-3)[GlcNAc(b1-6)]GalNAc
How it was run: as §1

[18] = biological target: GlcNAc(b1-4)Gal(b1-4)GlcNAc
How it was run: as §1

GlcNAc(b1-4)GlcNAc = biological target: GlcNAc(b1-4)GlcNAc
How it was run: as §1

[19] = biological target: GlcNAc(b1-4)GlcNAc(b1-4)GlcNAc
How it was run: as §1

[20] = biological target: GlcNAc(b1-4)GlcNAc(b1-4)GlcNAc(b1-4)GlcNAc(b1-4)GlcNAc
How it was run: as §1

B1: GS13686A-pdi-553-26-553 (Parabacteroides distasonis) (protein)
chain: NENPDKPTDDVNYNMNEPRLASTLRGGLIIEGNVEQRLKPLQIDFYSQMTVDGGGWGTKNYIQDDEWNNLVWEEYLKQIASINIVIRSLTEKDKDAYANTIAFARIWRVYVHTLAADKFGPMPFPAYEIVEANPPYKSLKDIYDEYFRELDAAINGFNDSAQPIFSDAGIDLIYKNDVSKWKRFANSLRLRLAVRLTEVDQEKCIAEANAAISSPAGLISDKADNAYMPPKADGSWGQDYNYTMFQITWSGPICMSKSVEKLVTNIGGVAWPQGVVNQTSGVAVSSVHPEKVDPRAPKIFQPGIENGDWKGLVYGPKAEEANTGIYQSKQCAELGFIIKDGYPYKSRPYDLFLSEEVHFLKAELYARGFIAGDAKSEYEAGVRASFATWGVTSEVDDYLTSTEKNEAGTSARYDDQQGAGNTALEKIITQKYIAGIPDLAQEGWNDKRRLNLPRLDVAVYRDQAVYNNNDKDILKSANFIKRMRYPTKESLINATEYEKGKSMLGGKGDIVSTPLWWDKNSNYCTSSK
In the case of B1, the “glycan array binding signal (z-score)” value [1] is reported as 0.075, the “glycan array binding signal (z-score)” value [2] is reported as 0.282 and the “glycan array binding signal (z-score)” value [3] is reported as 0.039. For the same binder, the “glycan array binding signal (z-score)” value [4] was 0.14, the “glycan array binding signal (z-score)” value [5] was 0.202 and the “glycan array binding signal (z-score)” value [6] was 0.144. The “glycan array binding signal (z-score)” value [7] was 0.258, the “glycan array binding signal (z-score)” value [8] was -0.077 and the “glycan array binding signal (z-score)” value [9] was -0.174. The “glycan array binding signal (z-score)” value [10] was -0.214, the “glycan array binding signal (z-score)” value [11] was 0.181 and the “glycan array binding signal (z-score)” value [12] was -0.309. For the same binder, the “glycan array binding signal (z-score)” value [13] was 0.163, the “glycan array binding signal (z-score)” value [14] was -0.425 and the “glycan array binding signal (z-score)” value (GlcNAc(b1-3)GalNAc) was -0.19. The “glycan array binding signal (z-score)” value (GlcNAc(b1-3)Man) was -0.065, the “glycan array binding signal (z-score)” value [15] was -0.116 and the “glycan array binding signal (z-score)” value [16] was -0.192. For the same binder, the “glycan array binding signal (z-score)” value [17] was -0.122, the “glycan array binding signal (z-score)” value [18] was -0.1 and the “glycan array binding signal (z-score)” value (GlcNAc(b1-4)GlcNAc) was -0.294. The “glycan array binding signal (z-score)” value [19] was -0.263 and the “glycan array binding signal (z-score)” value [20] was -0.095.
